# Reference: the supplement of paper PMC8007513
# Structures can show the parent of a compound that is named as a salt. ± gives the standard error. About 75 (6%) of roughly 1,300 compounds showed an effect of 50% or more. This is one part of the list.
# Test system: Trichoderma virens ATCC 9645
# Test: growth yield (OD600) relative to untreated control; higher = less growth inhibition
# Details: compound concentration: 100 uM
# Method in brief: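 Library compounds (100 μM final), with or without a co-applied biocide (200 ng ml^−1), were added to 100 μl aliquots of Trichoderma virens ATCC 9645 spores at 15,000 spores ml^−1 in potato dextrose broth. Cultures were grown at 30 °C in 96-well plates, and OD600 was measured at 40 h and 72 h. Each growth value is a mean of duplicate screens, expressed relative to the control with neither agent.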
SMILES,growth yield (40 h) [%],growth yield (72 h) [%]
C#C[C@]1(O)CC[C@H]2[C@@H]3CCC4=C(CCC(=O)C4)[C@H]3CC[C@@]21C [Norethynodrel],72.9 ± 2.7,79.92 ± 0.63
CC(C)(C)NCC(O)c1cc(O)cc(O)c1 (stereo unspecified) [Terbutaline hemisulfate],97.7 ± 1.1,99.42 ± 0.42
NS(=O)(=O)c1cc2c(cc1Cl)NC(CC1CCCC1)NS2(=O)=O (stereo unspecified) [Cyclopenthiazide],100 ± 1.9,106 ± 4.2
CC[N+](CC)(CC)CCOc1cccc(OCC[N+](CC)(CC)CC)c1OCC[N+](CC)(CC)CC [Gallamine triethiodide],99.6 ± 1.1,100.6 ± 0.52
CCOC(=O)[N-]c1c[n+](N2CCOCC2)no1 [Molsidomine],102 ± 2.1,104 ± 1.4
CN[C@@H]1[C@H](O[C@H]2[C@H](O[C@H]3[C@H](O)[C@@H](O)[C@H](NC(=N)N)[C@@H](O)[C@@H]3NC(=N)N)O[C@@H](C)[C@]2(O)CO)O[C@@H](CO)[C@H](O)[C@H]1O [Dihydrostreptomycin sulfate],96.9,98
NCc1ccc(S(N)(=O)=O)cc1 [Mafenide hydrochloride],107 ± 2.5,111 ± 4.2
CCc1oc2ccccc2c1C(=O)c1cc(Br)c(O)c(Br)c1 [Benzbromarone],40.7 ± 5.7,77.8 ± 4.8
CC/C(=C(\c1ccccc1)c1ccc(OCCN(C)C)cc1)c1ccccc1 [Tamoxifen citrate],1.11 ± 0.48,1.26 ± 0.21
CCCCC[C@H](O)/C=C/[C@H]1[C@H](O)CC(=O)[C@@H]1CCCCCCC(=O)O [Alprostadil],107 ± 8.4,101 ± 6.2
CCN1CCC[C@H]1CNC(=O)c1c(O)c(Cl)cc(Cl)c1OC [Raclopride],94.7,94.6
CC[C@@H]([C@H](C)O)n1ncn(-c2ccc(N3CCN(c4ccc(OC[C@@H]5CO[C@@](Cn6cncn6)(c6ccc(F)cc6F)C5)cc4)CC3)cc2)c1=O [Posaconazole],8.9 ± 8.9,5.77 ± 5.6
CN1CCC[C@@H]1CCO[C@](C)(c1ccccc1)c1ccc(Cl)cc1 [Clemastine fumarate],83.71 ± 0.16,97.43 ± 0.1
CCOc1ccc(NC(C)=O)cc1 [Phenacetin],99.1 ± 4.1,100 ± 5.9
CC(C(=O)O)c1ccc(C(=O)c2cccs2)cc1 (stereo unspecified) [Suprofen],91.2 ± 3.2,87.6 ± 3.7
COc1cc2ncnc(Nc3ccc(F)c(Cl)c3)c2cc1OCCCN1CCOCC1 [Gefitinib],7.47 ± 0.16,6.29
COc1ccc(C(=O)c2ccccc2O)c(O)c1 [Dioxybenzone],22.2,45.1 ± 2.7
CC(C)(C)NC[C@H](O)COc1ccccc1C1CCCC1 [Penbutolol sulfate],109 ± 6.2,110 ± 5.1
Nc1nc2[nH]cc(CCc3ccc(C(=O)N[C@@H](CCC(=O)O)C(=O)O)cc3)c2c(=O)[nH]1 [Pemetrexed disodium],96.9 ± 1.6,90.9 ± 5.3
COc1ccc(CN2CCN(C(c3ccc(F)cc3)c3ccc(F)cc3)CC2)c(OC)c1OC [Lomerizine hydrochloride],97.2 ± 4.1,107 ± 3.1
Cc1cnc(C(=O)O)c[n+]1[O-] [Acipimox],102 ± 2.4,102 ± 3.2
O=C(O)[C@H]1/C(=C/CO)O[C@@H]2CC(=O)N21 [Clavulanate potassium salt],95.5 ± 2.4,87.9 ± 3.4

SMILES,growth yield (40 h) [%],growth yield (72 h) [%]
O=C(OCCOCCO)c1ccccc1Nc1cccc(C(F)(F)F)c1 [Etofenamate],73.2 ± 7.8,100 ± 6.1
CN1CCOC(c2ccccc2)c2ccccc2C1 (stereo unspecified) [Nefopam hydrochloride],103 ± 3.5,103 ± 2.4
CN1CCC(=C2c3ccccc3CCc3sccc32)CC1 [Pizotifen malate],103 ± 1.8,106.2 ± 0.52
"CCN(CC)CCOc1ccc(C(=C(Cl)c2ccccc2)c2ccccc2)cc1 [Clomiphene citrate (Z,E)]",1.75 ± 1.1,2.2 ± 0.1
CN(C)[C@@H]1C(O)=C(C(=O)NCNCCCC[C@H](N)C(=O)O)C(=O)[C@@]2(O)C(O)=C3C(=O)c4c(O)cccc4[C@@](C)(O)[C@H]3C[C@@H]12 [Lymecycline],82.1 ± 2.7,73.83 ± 0.63
CCCCNc1ccc(C(=O)OCCN(C)C)cc1,99.752 ± 2.2e-14,102 ± 3.4
CCCCCOC(=O)Nc1nc(=O)n([C@@H]2O[C@H](C)[C@@H](O)[C@H]2O)cc1F [Capecitabine],105.2 ± 0.64,103.2 ± 0.84
CCC1NC(=O)c2cc(S(N)(=O)=O)c(Cl)cc2N1 (stereo unspecified) [Quinethazone],114 ± 1.4,107 ± 1.1
Cc1cnc(C(=O)NCCc2ccc(S(=O)(=O)NC(=O)NC3CCCCC3)cc2)cn1 [Glipizide],103.7 ± 0.48,104.3 ± 0.52
O=C1[C@H](CC[C@H](O)c2ccc(F)cc2)[C@@H](c2ccc(O)cc2)N1c1ccc(F)cc1 [Ezetimibe],96.6 ± 8.6,98.8 ± 6.3
COC(=O)C1=C(C)NC(C)=C(C(=O)OCCN(C)Cc2ccccc2)C1c1cccc([N+](=O)[O-])c1 (stereo unspecified) [Nicardipine hydrochloride],89.4 ± 5.2,114 ± 7.8
CN1CCN(c2c(F)cc3c(=O)c(C(=O)O)cn4c3c2SCC4)CC1 [Rufloxacin],92.8 ± 1.3,83 ± 7.5
COC(=O)C1=C(C)NC(C)=C(C(=O)OCC(C)C)C1c1ccccc1[N+](=O)[O-] (stereo unspecified) [Nisoldipine],25.6 ± 0.48,23.9 ± 2.3
O=C1CCc2ccc(OCCCCN3CCN(c4cccc(Cl)c4Cl)CC3)cc2N1 [Aripiprazole],98.2,96.8 ± 2.6
CN(C)CCOC(c1ccc(Cl)cc1)c1ccccn1 (stereo unspecified) [Carbinoxamine maleate salt],97.7 ± 4.3,97.8 ± 2.6
NC(=O)NC1NC(=O)NC1=O (stereo unspecified) [Allantoin],102 ± 4.3,99.5 ± 2.6
O=C1C(O)=C([C@H]2CC[C@H](c3ccc(Cl)cc3)CC2)C(=O)c2ccccc21 [Atovaquone],95.1 ± 4.3,97.4 ± 1.6
"CC(C)NCC(O)c1ccc(O)c(O)c1 (single isomer, unassigned; (-)) [(-)-Isoproterenol hydrochloride]",103 ± 1.9,96 ± 2.6
Cc1ccccc1C(OCCN(C)C)c1ccccc1 (stereo unspecified) [Orphenadrine hydrochloride],98 ± 3.3,98 ± 2.7
CCN(CC)CCNC(=O)COc1ccc(OC)cc1 [Mefexamide hydrochloride],104 ± 2.2,106 ± 2.5
Cc1nc2n(c(=O)c1CCN1CCC(c3noc4cc(F)ccc34)CC1)CCCC2O (stereo unspecified) [Paliperidone],101 ± 5.2,100 ± 2.7
